{"source": "the antibiotic and cytotoxicity screens of Wong et al. (2023)", "note": "The list shows a part of the results.", "data": [{"tested_on": "HepG2", "assay": "cytotoxicity call (relative viability < 0.9)", "details": "10 µM", "values": [{"compound": "CC(C(=O)O)C(=O)O", "cytotoxicity call": "inactive"}, {"compound": "C[C@H]1CN([C@@H](C)CO)C(=O)Cc2cc(NC(=O)CCCCCC(=O)Nc3ccccc3N)ccc2O[C@H]1CN(C)C(=O)Nc1ccccc1", "cytotoxicity call": "inactive"}, {"compound": "C[C@@H]1CCCCO[C@@H](CN(C)C(=O)Nc2cccc3ccccc23)[C@@H](C)CN([C@@H](C)CO)C(=O)c2cc(N(C)C)ccc2O1", "cytotoxicity call": "inactive"}, {"compound": "C[C@@H]1CN([C@@H](C)CO)C(=O)c2ccccc2-c2ccccc2CO[C@H]1CN(C)Cc1ccccc1C(F)(F)F", "cytotoxicity call": "inactive"}, {"compound": "COc1ccc(S(=O)(=O)N(C)C[C@@H]2Oc3ccc(N(C)C)cc3CC(=O)N([C@H](C)CO)C[C@H]2C)cc1", "cytotoxicity call": "inactive"}, {"compound": "C[C@H](CO)N1C[C@H](C)[C@@H](CN(C)CC2CCCCC2)Oc2c(NC(=O)c3nc4ccccc4s3)cccc2C1=O", "cytotoxicity call": "inactive"}, {"compound": "C[C@H](NC(=O)C[C@H]1C=C[C@@H](NC(=O)CN2CCOCC2)[C@@H](CO)O1)c1ccccc1", "cytotoxicity call": "inactive"}, {"compound": "C[C@H](CO)N1C[C@H](C)[C@H](CN(C)Cc2ccc(Oc3ccccc3)cc2)Oc2ccc(NC(=O)CCCCCC(=O)Nc3ccccc3N)cc2CC1=O", "cytotoxicity call": "inactive"}, {"compound": "C[C@H]1CN([C@@H](C)CO)S(=O)(=O)c2ccc(C3=CCCCC3)cc2O[C@H]1CN(C)C(=O)C1CCOCC1", "cytotoxicity call": "inactive"}, {"compound": "CCNC(=O)C[C@@H]1CC[C@@H]2[C@H](COC[C@H](O)CN2S(=O)(=O)c2ccc(Oc3ccccc3)cc2)O1", "cytotoxicity call": "inactive"}, {"compound": "Cc1noc(C)c1NC(=O)N(C)C[C@H]1Oc2ccc(NC(=O)Nc3ccc(C(F)(F)F)cc3)cc2C(=O)N([C@@H](C)CO)C[C@H]1C", "cytotoxicity call": "inactive"}, {"compound": "C[C@H](CO)N1C[C@H](C)[C@H](CN(C)C(=O)Nc2ccc(F)cc2)Oc2ccc(NC(=O)Nc3ccc(C(F)(F)F)cc3)cc2CC1=O", "cytotoxicity call": "inactive"}, {"compound": "CC(C)N1C[C@@H](C)[C@H](CN(C)S(=O)(=O)c2ccc(F)cc2)OCCCC[C@H](C)Oc2ccc(NC(=O)Nc3ccccc3)cc2C1=O", "cytotoxicity call": "inactive"}, {"compound": "C[C@@H]1CCCCO[C@H](CN(C)S(=O)(=O)c2ccccc2)[C@H](C)CN([C@@H](C)CO)C(=O)c2cc(NS(C)(=O)=O)ccc2O1", "cytotoxicity call": "inactive"}, {"compound": "C[C@H](CO)N1C[C@H](C)[C@@H](CN(C)Cc2ccc3c(c2)OCO3)Oc2ccc(NC(=O)C3CC3)cc2CC1=O", "cytotoxicity call": "inactive"}, {"compound": "C[C@H]1CN([C@@H](C)CO)C(=O)c2cc(NC(=O)NC3CCCCC3)ccc2O[C@@H]1CN(C)Cc1ccc(Cl)c(Cl)c1", "cytotoxicity call": "inactive"}, {"compound": "Cc1ccc(S(=O)(=O)Nc2ccc3c(c2)CC(=O)N([C@@H](C)CO)C[C@H](C)[C@@H](CN(C)S(=O)(=O)c2c(C)noc2C)O3)cc1", "cytotoxicity call": "inactive"}, {"compound": "C[C@H]1CCCCO[C@@H](CN(C)Cc2ccc(C(F)(F)F)cc2)[C@@H](C)CN([C@@H](C)CO)C(=O)c2cc(NC(=O)Nc3ccc(F)cc3)ccc2O1", "cytotoxicity call": "active"}, {"compound": "C[C@@H]1CCCCO[C@@H](CN(C)CC2CCCCC2)[C@@H](C)CN([C@H](C)CO)C(=O)c2cc(NC(=O)c3ccccc3)ccc2O1", "cytotoxicity call": "active"}, {"compound": "COc1ccc(NC(=O)Nc2ccc3c(c2)C(=O)N([C@H](C)CO)C[C@@H](C)[C@@H](CN(C)S(=O)(=O)c2ccc(C)cc2)OCCCC[C@H](C)O3)cc1", "cytotoxicity call": "inactive"}, {"compound": "C[C@@H]1CN([C@@H](C)CO)C(=O)Cc2cc(NC(=O)CCN3CCOCC3)ccc2O[C@H]1CN(C)C(=O)Nc1ccc2c(c1)OCO2", "cytotoxicity call": "inactive"}, {"compound": "COCC(=O)Nc1ccc2c(c1)[C@H]1C[C@H](CC(=O)N3CCOCC3)O[C@H](CO)[C@H]1O2", "cytotoxicity call": "inactive"}, {"compound": "C[C@H](CO)N1C[C@H](C)[C@@H](CN(C)C(=O)Nc2ccc3c(c2)OCO3)Oc2ccc(NC(=O)C3CC3)cc2CC1=O", "cytotoxicity call": "inactive"}, {"compound": "C[C@@H]1CN([C@@H](C)CO)C(=O)c2cc(NC(=O)Nc3ccc(F)cc3)ccc2O[C@@H]1CN(C)C(=O)Nc1cccc2ccccc12", "cytotoxicity call": "inactive"}, {"compound": "C[C@@H]1CN([C@H](C)CO)C(=O)c2cc(NC(=O)c3ccncc3)ccc2O[C@@H](C)CCCCO[C@@H]1CN(C)Cc1ccccc1", "cytotoxicity call": "inactive"}, {"compound": "C[C@@H]1CCCCO[C@@H](CN(C)C)[C@@H](C)CN([C@H](C)CO)C(=O)c2cc(NC(=O)Nc3ccc(C(F)(F)F)cc3)ccc2O1", "cytotoxicity call": "active"}, {"compound": "CCN1C(=O)CS/C1=N\\N1CCOCC1", "cytotoxicity call": "inactive"}, {"compound": "C[C@@H]1CCCCO[C@H](CN(C)C(=O)Nc2ccccc2)[C@@H](C)CN([C@H](C)CO)C(=O)c2cc(NC(=O)CCC(F)(F)F)ccc2O1", "cytotoxicity call": "inactive"}, {"compound": "O=C1NC[C@@H]2CN(C(=O)c3cnccn3)C[C@@H]12", "cytotoxicity call": "inactive"}, {"compound": "CN1C(=O)c2cc(NC(=O)C3CCOCC3)ccc2OC[C@H]2O[C@@H](CC(=O)NCc3ccc4c(c3)OCO4)CC[C@@H]21", "cytotoxicity call": "inactive"}, {"compound": "O=C(C[C@H]1CC[C@H]2[C@@H](COC[C@@H](O)CN2S(=O)(=O)c2ccc(F)cc2)O1)N1CCc2ccccc2C1", "cytotoxicity call": "inactive"}, {"compound": "COc1ccc(CN(C)C[C@@H]2OCCCC[C@H](C)Oc3ccc(NC(=O)Nc4c(C)noc4C)cc3C(=O)N([C@H](C)CO)C[C@@H]2C)cc1", "cytotoxicity call": "inactive"}, {"compound": "C[C@@H]1CCCCO[C@@H](CN(C)Cc2ccc(C(F)(F)F)cc2)[C@@H](C)CN([C@@H](C)CO)C(=O)c2cc(NC(=O)CCC(F)(F)F)ccc2O1", "cytotoxicity call": "inactive"}, {"compound": "CO[C@@H]1CN(C)C(=O)c2cc(NC(=O)CC(F)(F)F)ccc2OC[C@@H](C)N(S(=O)(=O)c2cn(C)cn2)C[C@H]1C", "cytotoxicity call": "inactive"}, {"compound": "CC1=C(C(=O)O)N2C(=O)[C@@H](NC(=O)[C@@H](N)c3ccc(O)cc3)[C@H]2SC1", "cytotoxicity call": "inactive"}, {"compound": "CCOC(=O)c1ncn2c1CN(C)C(=O)c1cc(F)ccc1-2", "cytotoxicity call": "inactive"}, {"compound": "CN1C[C@H](O)COC[C@@H]2O[C@@H](CC(=O)N3CCN(c4ccccc4)CC3)CC[C@H]21", "cytotoxicity call": "inactive"}, {"compound": "Cc1noc(C)c1NC(=O)N(C)C[C@H]1Oc2ccc(NC(=O)Nc3ccc(C(F)(F)F)cc3)cc2C(=O)N([C@H](C)CO)C[C@H]1C", "cytotoxicity call": "inactive"}, {"compound": "O=C(NCCCN1CCCC1=O)c1cccnc1", "cytotoxicity call": "inactive"}, {"compound": "C[C@@H]1CN([C@@H](C)CO)C(=O)c2cc(NC(=O)Nc3ccccc3)ccc2O[C@@H]1CN(C)Cc1ccc(C(F)(F)F)cc1", "cytotoxicity call": "active"}]}]}
